Results from article PMC12820563.
This is one part of the list. The list includes weakly bound sequences.

molecular target: T1, MBP-FoxP3dN (UniProt Q99JB6); assay: PD-seq (MBP pull-down with sequencing); conditions: 20 mM Tris-HCl pH 7.5, 100 mM NaCl, 1.5 mM MgCl2, 0.4 uM protein, 0.1 uM dsDNA library, 30 min, room temperature, amylose pull-down; high values mean tight binding; double strand, one strand shown
T1 sequence: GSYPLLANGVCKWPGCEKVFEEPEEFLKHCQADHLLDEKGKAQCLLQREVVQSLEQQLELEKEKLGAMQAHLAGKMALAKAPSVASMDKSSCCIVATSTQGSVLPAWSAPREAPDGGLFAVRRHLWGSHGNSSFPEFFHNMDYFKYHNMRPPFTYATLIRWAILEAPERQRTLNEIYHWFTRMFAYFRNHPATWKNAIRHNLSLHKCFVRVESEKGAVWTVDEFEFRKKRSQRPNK

Sequence | binding signal (RPM ratio (pull-down/input))
GATGATTGTTCTCCCAGCTGATGAATTCTACAACTCGAGTAAACAAATTTTCCTAATCTTTCTGTTCAAGCGCCATCTAC | 0.303
GATGATTGTTCTCCCAGCTGATGAATTCGGTCGTTCGAGTAAACAAATTTTCCTAATCTTTCTGTTCAAGCGCCATCTAC | 0.509
GATGATTGTTCTCCCAGCTGATGAATTGGCGATCTCGAGTAAACAAATTTTCCTAATCTTTCTGTTCAAGCGCCATCTAC | 0.465
GATGATTGTTCTCCCAGCTGATGAATTTCCCAGTTCGAGTAAACAAATTTTCCTAATCTTTCTGTTCAAGCGCCATCTAC | 0.22
GATGATTGTTCTCCCAGCTGATGAATTCCCAGCATCGAGTAAACAAATTTTCCTAATCTTTCTGTTCAAGCGCCATCTAC | 0.658
GATGATTGTTCTCCCAGCTGATGAATTAACAGATTCGAGTAAACAAATTTTCCTAATCTTTCTGTTCAAGCGCCATCTAC | 0.282
GATGATTGTTCTCCCAGCTGATGAATTATTCCCCTCGAGTAAACAAATTTTCCTAATCTTTCTGTTCAAGCGCCATCTAC | 0.293
GATGATTGTTCTCCCAGCTGATGAATTCACCCAGTCGAGTAAACAAATTTTCCTAATCTTTCTGTTCAAGCGCCATCTAC | 0.2
GATGATTGTTCTCCCAGCTGATGAATTTCTAACCTCGAGTAAACAAATTTTCCTAATCTTTCTGTTCAAGCGCCATCTAC | 0.233
GATGATTGTTCTCCCAGCTGATGAATTAGGATCGTCGAGTAAACAAATTTTCCTAATCTTTCTGTTCAAGCGCCATCTAC | 0.31
GATGATTGTTCTCCCAGCTGATGAATTTGTCGGATCGAGTAAACAAATTTTCCTAATCTTTCTGTTCAAGCGCCATCTAC | 1.05
GATGATTGTTCTCCCAGCTGATGAATTCTCACTCTCGAGTAAACAAATTTTCCTAATCTTTCTGTTCAAGCGCCATCTAC | 0.295
GATGATTGTTCTCCCAGCTGATGAATTTCGTTGCTCGAGTAAACAAATTTTCCTAATCTTTCTGTTCAAGCGCCATCTAC | 1.19
GATGATTGTTCTCCCAGCTGATGAATTGTCGACCTCGAGTAAACAAATTTTCCTAATCTTTCTGTTCAAGCGCCATCTAC | 0.355
GATGATTGTTCTCCCAGCTGATGAATTCGGGAGATCGAGTAAACAAATTTTCCTAATCTTTCTGTTCAAGCGCCATCTAC | 0.252
GATGATTGTTCTCCCAGCTGATGAATTTTGTCTATCGAGTAAACAAATTTTCCTAATCTTTCTGTTCAAGCGCCATCTAC | 4.99
GATGATTGTTCTCCCAGCTGATGAATTCTGGGAGTCGAGTAAACAAATTTTCCTAATCTTTCTGTTCAAGCGCCATCTAC | 0.24
GATGATTGTTCTCCCAGCTGATGAATTTACGCCATCGAGTAAACAAATTTTCCTAATCTTTCTGTTCAAGCGCCATCTAC | 2.38
GATGATTGTTCTCCCAGCTGATGAATTTGAATTTTCGAGTAAACAAATTTTCCTAATCTTTCTGTTCAAGCGCCATCTAC | 0.538
GATGATTGTTCTCCCAGCTGATGAATTTATAGGATCGAGTAAACAAATTTTCCTAATCTTTCTGTTCAAGCGCCATCTAC | 0.414
GATGATTGTTCTCCCAGCTGATGAATTATATAGCTCGAGTAAACAAATTTTCCTAATCTTTCTGTTCAAGCGCCATCTAC | 0.511

Sequence | binding signal (RPM ratio (pull-down/input))
GATGATTGTTCTCCCAGCTGATGAATTTAGATCCTCGAGTAAACAAATTTTCCTAATCTTTCTGTTCAAGCGCCATCTAC | 0.531
GATGATTGTTCTCCCAGCTGATGAATTGGCGTCTTCGAGTAAACAAATTTTCCTAATCTTTCTGTTCAAGCGCCATCTAC | 1.06
GATGATTGTTCTCCCAGCTGATGAATTCCTTCATTCGAGTAAACAAATTTTCCTAATCTTTCTGTTCAAGCGCCATCTAC | 0.281
GATGATTGTTCTCCCAGCTGATGAATTGTCCTGGTCGAGTAAACAAATTTTCCTAATCTTTCTGTTCAAGCGCCATCTAC | 0.267
GATGATTGTTCTCCCAGCTGATGAATTTCTTATTTCGAGTAAACAAATTTTCCTAATCTTTCTGTTCAAGCGCCATCTAC | 0.878
GATGATTGTTCTCCCAGCTGATGAATTCCCTGAATCGAGTAAACAAATTTTCCTAATCTTTCTGTTCAAGCGCCATCTAC | 0.178
GATGATTGTTCTCCCAGCTGATGAATTAGCCGTATCGAGTAAACAAATTTTCCTAATCTTTCTGTTCAAGCGCCATCTAC | 0.49
GATGATTGTTCTCCCAGCTGATGAATTATTGTGCTCGAGTAAACAAATTTTCCTAATCTTTCTGTTCAAGCGCCATCTAC | 1.46
GATGATTGTTCTCCCAGCTGATGAATTTCACTCTTCGAGTAAACAAATTTTCCTAATCTTTCTGTTCAAGCGCCATCTAC | 0.407
GATGATTGTTCTCCCAGCTGATGAATTTGCTCGCTCGAGTAAACAAATTTTCCTAATCTTTCTGTTCAAGCGCCATCTAC | 0.403
GATGATTGTTCTCCCAGCTGATGAATTAACTCAGTCGAGTAAACAAATTTTCCTAATCTTTCTGTTCAAGCGCCATCTAC | 0.222
GATGATTGTTCTCCCAGCTGATGAATTCTCCGATTCGAGTAAACAAATTTTCCTAATCTTTCTGTTCAAGCGCCATCTAC | 0.191
GATGATTGTTCTCCCAGCTGATGAATTGCTCTACTCGAGTAAACAAATTTTCCTAATCTTTCTGTTCAAGCGCCATCTAC | 0.488
GATGATTGTTCTCCCAGCTGATGAATTGAAATTTTCGAGTAAACAAATTTTCCTAATCTTTCTGTTCAAGCGCCATCTAC | 0.292
GATGATTGTTCTCCCAGCTGATGAATTTAGACACTCGAGTAAACAAATTTTCCTAATCTTTCTGTTCAAGCGCCATCTAC | 1.73
GATGATTGTTCTCCCAGCTGATGAATTGTGTGCATCGAGTAAACAAATTTTCCTAATCTTTCTGTTCAAGCGCCATCTAC | 2.8
GATGATTGTTCTCCCAGCTGATGAATTAACCGCCTCGAGTAAACAAATTTTCCTAATCTTTCTGTTCAAGCGCCATCTAC | 0.479
GATGATTGTTCTCCCAGCTGATGAATTTCAGGCCTCGAGTAAACAAATTTTCCTAATCTTTCTGTTCAAGCGCCATCTAC | 0.445
GATGATTGTTCTCCCAGCTGATGAATTTATTACTTCGAGTAAACAAATTTTCCTAATCTTTCTGTTCAAGCGCCATCTAC | 1.39
GATGATTGTTCTCCCAGCTGATGAATTGCGCAGTTCGAGTAAACAAATTTTCCTAATCTTTCTGTTCAAGCGCCATCTAC | 1.95
GATGATTGTTCTCCCAGCTGATGAATTTCATAGCTCGAGTAAACAAATTTTCCTAATCTTTCTGTTCAAGCGCCATCTAC | 0.415

Sequence | binding signal (RPM ratio (pull-down/input))
GATGATTGTTCTCCCAGCTGATGAATTCCCCCGGTCGAGTAAACAAATTTTCCTAATCTTTCTGTTCAAGCGCCATCTAC | 0.163
GATGATTGTTCTCCCAGCTGATGAATTACTTAGGTCGAGTAAACAAATTTTCCTAATCTTTCTGTTCAAGCGCCATCTAC | 0.265
GATGATTGTTCTCCCAGCTGATGAATTTTCCGCATCGAGTAAACAAATTTTCCTAATCTTTCTGTTCAAGCGCCATCTAC | 1.07
GATGATTGTTCTCCCAGCTGATGAATTTGTCTGCTCGAGTAAACAAATTTTCCTAATCTTTCTGTTCAAGCGCCATCTAC | 3.47
GATGATTGTTCTCCCAGCTGATGAATTACAAAAGTCGAGTAAACAAATTTTCCTAATCTTTCTGTTCAAGCGCCATCTAC | 0.272
GATGATTGTTCTCCCAGCTGATGAATTATAGGTATCGAGTAAACAAATTTTCCTAATCTTTCTGTTCAAGCGCCATCTAC | 0.744
GATGATTGTTCTCCCAGCTGATGAATTATATCTGTCGAGTAAACAAATTTTCCTAATCTTTCTGTTCAAGCGCCATCTAC | 0.544
GATGATTGTTCTCCCAGCTGATGAATTCGTAGCATCGAGTAAACAAATTTTCCTAATCTTTCTGTTCAAGCGCCATCTAC | 1.31
GATGATTGTTCTCCCAGCTGATGAATTTACCAAATCGAGTAAACAAATTTTCCTAATCTTTCTGTTCAAGCGCCATCTAC | 0.518
GATGATTGTTCTCCCAGCTGATGAATTAAAAAGGTCGAGTAAACAAATTTTCCTAATCTTTCTGTTCAAGCGCCATCTAC | 0.14
GATGATTGTTCTCCCAGCTGATGAATTCACTTATTCGAGTAAACAAATTTTCCTAATCTTTCTGTTCAAGCGCCATCTAC | 0.589
GATGATTGTTCTCCCAGCTGATGAATTCTTAGACTCGAGTAAACAAATTTTCCTAATCTTTCTGTTCAAGCGCCATCTAC | 0.216
GATGATTGTTCTCCCAGCTGATGAATTCACGGGGTCGAGTAAACAAATTTTCCTAATCTTTCTGTTCAAGCGCCATCTAC | 0.202
GATGATTGTTCTCCCAGCTGATGAATTTCTTGAGTCGAGTAAACAAATTTTCCTAATCTTTCTGTTCAAGCGCCATCTAC | 0.256
GATGATTGTTCTCCCAGCTGATGAATTCGGAATGTCGAGTAAACAAATTTTCCTAATCTTTCTGTTCAAGCGCCATCTAC | 0.541
GATGATTGTTCTCCCAGCTGATGAATTTCAAGTCTCGAGTAAACAAATTTTCCTAATCTTTCTGTTCAAGCGCCATCTAC | 0.308
GATGATTGTTCTCCCAGCTGATGAATTCGGACTTTCGAGTAAACAAATTTTCCTAATCTTTCTGTTCAAGCGCCATCTAC | 0.935
GATGATTGTTCTCCCAGCTGATGAATTTGTTGTCTCGAGTAAACAAATTTTCCTAATCTTTCTGTTCAAGCGCCATCTAC | 7.77
GATGATTGTTCTCCCAGCTGATGAATTACGAATTTCGAGTAAACAAATTTTCCTAATCTTTCTGTTCAAGCGCCATCTAC | 1.23
GATGATTGTTCTCCCAGCTGATGAATTTAATTGGTCGAGTAAACAAATTTTCCTAATCTTTCTGTTCAAGCGCCATCTAC | 3.45
GATGATTGTTCTCCCAGCTGATGAATTCGTCCAGTCGAGTAAACAAATTTTCCTAATCTTTCTGTTCAAGCGCCATCTAC | 0.261
